Among all 48,000 compounds or so, about 1,200 (2.5%) were called active. Inconclusive results (about 2%) are left out.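 The calls were made as follows: active = activation of at least 60% and not above a set upper limit (about 1 call in 100 departs from these limits); inconclusive = activation of 40% to 60%, or above that upper limit; inactive = activation under 40%.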 The list shows a part of the results.

Chain of UniProt O75388 (O75388 whole entry, looked up): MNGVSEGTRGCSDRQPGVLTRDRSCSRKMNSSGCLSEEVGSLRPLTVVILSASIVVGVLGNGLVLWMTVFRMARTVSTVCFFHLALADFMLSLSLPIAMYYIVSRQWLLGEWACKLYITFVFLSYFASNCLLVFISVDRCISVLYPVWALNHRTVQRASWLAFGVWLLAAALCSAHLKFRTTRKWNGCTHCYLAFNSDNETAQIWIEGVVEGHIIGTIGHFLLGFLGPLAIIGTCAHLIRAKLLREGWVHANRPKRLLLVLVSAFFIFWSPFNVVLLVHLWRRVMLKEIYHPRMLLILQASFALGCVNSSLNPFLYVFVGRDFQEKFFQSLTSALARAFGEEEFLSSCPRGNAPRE

This assay has as its target Probable G-protein coupled receptor 32 (Homo sapiens) (UniProt O75388). Put plainly: qHTS for Agonists of Human Resolvin D1 Receptor DRV1. Also: 0% is about no effect. The conditions noted are these: CHO-K1 GPR32 beta-arrestin PathHunter luminescence, 90 min; at 76.9 µM; hits give high values; zero percent set by DMSO-only wells. The procedure, abridged:
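Engineered CHO-K1 line co-expressing GPR32-ProLink and EA-beta-arrestin. Compound treatment lasted 90 min at 37 °C. Luminescence was recorded after 1 h with substrate at ambient temperature, relative to DMSO basal wells.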
On the technique in general: qHTS replaces the single test concentration by a dilution series.
Regarding `COc1ccccc1CCNC(=O)C(=O)NCC(c1cccs1)S(=O)(=O)c1ccc(C)cc1` (stereo not drawn), the activation was inactive: -18.6%.
Then `CCOc1ccccc1CNC(=O)Cn1ncn2nc(-c3cccs3)cc2c1=O`, with inactive: 0.392%.
To `Cc1ccc(C)c(CNC(=O)C2CCN(c3nc4ccccc4nc3C(F)(F)F)CC2)c1` belongs inactive: -9.46%; to `Cc1ccc(C)c2sc(NC(=O)c3ccc(S(=O)(=O)N4CCCC4)cc3)nc12`, inactive: -14.4%; to `COc1ccc2c(c1)c1c(c(=O)n(CCc3ccccc3)c(=O)n1Cc1ccccc1)n2C`, inactive: -7.76%.
Then `O=C(c1cc2ccc3cccnc3c2[nH]1)N1CCN(c2cccc(C(F)(F)F)c2)CC1`, with inactive: -27.8%; and `Cc1ccc(NC(=O)c2oc3ccc(S(=O)(=O)N4CCCCC4)cc3c2C)cc1C`, with inactive: 5.16%; and `COc1ccc(-c2cc(C(F)(F)F)nc(SCC(=O)N(C)Cc3ccccc3)n2)cc1OC`, with inactive: -14.8%.
Consider `CC(=O)N1CCOc2cc(S(=O)(=O)NCc3ccc(C)cc3)c(C)cc21`, for which the activation was inactive: -9.14%.
`COc1ccc(N(C(=O)c2ccccc2F)S(=O)(=O)c2ccc3c(c2)n(C)c(=O)n3C)cc1`: the activation is inactive: -2.52%.
Then `CCN1CCN(CCCNC(=O)c2cc3c(=O)n(CC)c4ccccc4c3s2)CC1`, with inactive: 3.06%; and `Cc1c(CNCc2ccc(OC(C)C)cc2)c(C(=O)O)c(C)n1Cc1ccc(Cl)cc1`, with inactive: -4.25%; and `CCOc1ccc(CNC(=O)c2ccc3c(c2)nc2n3CCOC2)cc1`, with inactive: -5.37%.
Then `CCOC(=O)c1cccc(NC(=O)c2cc(S(=O)(=O)N3CCCCCC3)cn2C)c1`, with inactive: -1.32%; and `COc1ccc(CNc2oc(-c3ccc(COc4ccc(Cl)cc4)o3)nc2C#N)cc1`, with inactive: -20.1%.
With `Cc1ccc(C)c(CN2C(=O)c3ccccc3S(=O)c3ccc(C(=O)N4CCC(C)CC4)cc32)c1` (stereo not drawn), the activation is inactive: 39.2%.
As for `CCC(C)(C)NS(=O)(=O)c1cc(-c2cc(C)no2)ccc1C`, the activation was inactive: -15.1%.
To `CCN1c2ccccc2-c2nc(SCC(=O)Nc3cccc(C(F)(F)F)c3)ncc2S1(=O)=O` belongs inactive: -9.1%.
Then `COc1cc(O)ccc1C1CC(=O)Nc2c1c(=O)nc(SCc1ccccc1C)n2C` (stereo not drawn), with inactive: -14.7%.
`COc1ccc2nc(S(=O)Cc3ncc(C)c(OC)c3C)[nH]c2c1` (stereo not drawn): the activation is inactive: -10.7%.
Then `COc1ccc(CNC(=O)c2c(Nc3ccc(OC)cc3OC)sc(C(=O)c3ccc(Cl)cc3)c2N)cc1`, with inactive: -5.09%; and `CCOC(=O)CSc1nc2sc3c(c2c(=O)n1Cc1ccccc1)CCC(C(C)(C)C)C3` (stereo not drawn), with inactive: 0.942%.
To `Cc1ccc(CNC(=O)C2CCC(CNS(=O)(=O)c3ccc4c(c3)CCCC(=O)N4)CC2)cc1` (stereo not drawn) belongs inactive: -3.49%; to `CC(C)OCCCNC(=O)CCCn1c(=O)[nH]c2ccsc2c1=O`, inactive: 4.41%.
As for `COc1ccc(CN(C(=O)c2cc3ccccc3oc2=O)C2CCS(=O)(=O)C2)cc1` (stereo not drawn), the activation is inactive: -10.9%.
`CCOc1ccc(CNC(=O)c2cc(=O)[nH]c3ccc(S(=O)(=O)N4CCCCC4)cc23)cc1`: the activation is inactive: -2.13%.
To `COc1ccc(-c2nc3c4cnn(-c5ccccc5F)c4ncn3n2)cc1` belongs inactive: -12.9%; to `COC(=O)CC1Oc2ccc(F)cc2-n2cc(-c3ccc(Cl)cc3)nc21` (stereo not drawn), inactive: 3.73%; to `O=C(Nc1cccc(-c2nc3ccccc3o2)c1)c1cc([N+](=O)[O-])ccc1N1CCOCC1`, inactive: -39.3%.
Then `Cc1cccc(C)c1OCCSc1nc2ccccc2n1CC(=O)O`, with inactive: 26.4%; and `COc1ccc(N2CCN(S(=O)(=O)c3csc(C(N)=O)c3)CC2)cc1`, with inactive: -1.69%; and `CCN(Cc1ccccc1)C(=O)Cn1c(=O)n(-c2ccc(F)c(Cl)c2)c(=O)c2sc3ccccc3c21`, with inactive: -11.8%.
`CCOC(=O)c1ccc(NC(=O)CCS(=O)(=O)c2ccc(C)cc2)cc1`: the activation was inactive: -4.95%.
To `Cc1cccc(-c2nc(CCNC(=O)c3ccco3)cs2)c1` belongs inactive: -7.88%; to `O=c1[nH]c2cc(Cl)c(Cl)cc2[nH]c1=O`, inactive: -4.75%; to `COc1ccc(NC(=O)CN2CCCN(S(=O)(=O)c3ccc(Br)cc3)CC2)c(OC)c1`, inactive: -28.1%.
To `CCOc1ccc(NC(=O)CSc2nc3c(c(=O)[nH]2)CCCC3)cc1` belongs inactive: 1.44%; to `COc1ccc(C)cc1NC(=O)COCc1cc(-c2cccs2)on1`, inactive: -7.84%; to `Cc1ccc(N(C)C(=O)Cn2cnc3onc(-c4ccc(F)cc4)c3c2=O)cc1C`, inactive: -1.7%.
Then `COc1cc(C2c3c(oc4ccc(F)cc4c3=O)C(=O)N2c2nc(C)c(C)s2)cc(OC)c1OC` (stereo not drawn), with inactive: -12.8%; and `O=C(CCS(=O)(=O)c1cc(Br)cc2c1N(C(=O)C1CC1)CC2)N1CCN(c2ccc(F)cc2)CC1`, with inactive: -26.8%; and `Cc1ccc2ncc(C(=O)NCCc3ccc(S(N)(=O)=O)cc3)c(=O)n2c1`, with inactive: -0.391%.
On to `COc1ccc(CCNC(=O)CCCn2c(=O)c3ccccc3n(Cc3ccc(C)cc3)c2=O)cc1OC`, for which the activation was inactive: -4.41%.
To `Cc1ccc(CCNC(=O)c2cc3c(=O)oc4ccccc4c3s2)cc1` belongs inactive: 2.59%; to `Cc1nn2c(C)c(C(=O)N3CCN(c4ccccc4)CC3)cnc2c1-c1ccccc1`, inactive: -25.3%.
Regarding `COc1ccccc1OCCn1c(COc2cc(C)ccc2C)nc2ccccc21`, the activation is inactive: -30.5%.
Then `CCOc1ccccc1Nc1sc(C(=O)c2ccccc2)c(N)c1C(=O)NCCc1ccccc1`, with inactive: -9.71%; and `O=C(c1ccc(Cl)cc1)N(Cc1ccco1)Cc1ccco1`, with inactive: -13.7%; and `COc1cc(NC(=O)CSc2nc3ccccc3nc2Cc2ccccc2OC)cc(OC)c1`, with inactive: -24.6%.
Turning to `COc1cccc(CNC(=O)CNS(=O)(=O)c2ccc3nc(C)sc3c2)c1`, the activation was inactive: -7.03%.
To `COc1ccc(NC(=O)Cn2c(=O)n(CC3CCCO3)c(=O)c3ccccc32)c(OC)c1` (stereo not drawn) belongs inactive: -6.35%.
To `CCC(=O)Nc1ccc(C)cc1-c1nc2ccccc2n(CC(=O)Nc2ccccc2Cl)c1=O` belongs inactive: -1.54%; to `COc1cc(OC)cc(C(=O)Nc2ccc3oc(-c4ccccc4C)nc3c2)c1`, inactive: -1.83%.
